# Reference: PubChem BioAssay AID1345083 (National Center for Advancing Translational Sciences (NCATS), 2018)
# Among all 94,000 compounds or so, about 6,200 (6.6%) were called active. Inconclusive results, whose numbers are uncertain, are shown with a selection of clear calls. Calls come from the whole dose curve; as a rule, active = well fitted inhibition curve with a large enough effect; inconclusive = small, poorly fitted or top-dose-only effect; inactive = flat fitted curve, though single readings scatter. A potency beside an inconclusive call is a rough fit, not a confirmed value.
# Experiment: Cytotoxic Profiling in HEK 293 Cell Line of Diverse Libraries Using Quantitative High-Throughput Screening; note: nearly all actives have a fitted effect of over 60% in size
# Conditions: HEK 293 viability, ATP luminescence (CellTiter-Glo), 48-72 h; activity change, negative = cytotoxicity: at 115 µM (top of the series) unless noted; series mostly up to 115 µM
# How it was run: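 qHTS cytotoxicity; HEK 293, 250 cells/well; compound pinned; 48 or 72 hr, 37 degree Celsius, 5% CO2, 95% humidity; CellTiter-Glo, 10 min RT; luminescence (ATP).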
# % is set by controls: 0 for no effect and ±100 for the full control effect; potency is the fitted concentration of half-maximal effect; tags give direction and shape of the fitted curve.
SMILES,"activity change, negative = cytotoxicity",Potency,outcome
COc1cc(F)ccc1C(C(=O)O)N1CCC(Oc2cccc(F)c2)CC1 (stereo not drawn),inactive: -0.609%,,
CCCN1CCCC2(CCN(C(=O)c3cc(CC)[nH]c(=O)c3)C2)C1=O (stereo not drawn),inactive: -6.32%,,
Cc1ccc(C(=O)N2CCC3(CC2)N=C(c2cccc(Br)c2)NO3)cc1F,,"inconclusive: 56.2 µM [inhibitor, partial curve, poor fit]",
Cc1onc(-c2cnn(C)c2NCc2ccc(C#N)cc2)c1C(=O)N(C)c1cccnc1,inactive: -6.54% [at 172 µM],,
CCCCCC(=O)Nc1nc2c(s1)C[C@@H]1[C@](C)(CO)[C@H](O)CC[C@@]1(C)[C@@H]2CC(=O)NCCOC,inactive: -0.98%,,
CCc1ccccc1CN1CCCCC12Cc1ccccc1CNC2=O (stereo not drawn),,"inconclusive: 56.2 µM [inhibitor, partial curve, poor fit]",
COc1ccc(CCC(=O)N2CCC[C@H]2c2nc(-c3ccc(OC)cc3)no2)cc1,,"inconclusive: 89.1 µM [inhibitor, single point]",
C#CCNC(=O)c1onc(-c2ccc(Cl)cc2)c1[C@H](C)O,,"inconclusive: 100 µM [inhibitor, partial curve]",
CN1CCN(c2nc3c(c(=O)[nH]2)CCN(CC2CCCCC2)CC3)CC1,inactive: 6.05%,,
O=C(c1cc2ccccc2[nH]1)N1CCCC2(C1)NC(=O)N(Cc1ccccc1)C2=O (stereo not drawn),,"inconclusive: 3.55 µM [inhibitor, full curve, poor fit]",
CC(C)C(=O)Nc1cc(-c2ccccn2)nn1-c1ccccc1,inactive: -21.8% [at 172 µM],,
CC(C)c1noc(-c2cccn3c(CNC(=O)c4ccc(Cl)cc4)nnc23)n1,,"inconclusive: 56.2 µM [inhibitor, partial curve, poor fit]",
CCN1CCN(C(=O)c2nc3sccn3c2-c2ccc(OC)cc2)CC1,inactive: 2.52%,,
COc1ccc(CCC(=O)N2CCC(F)(C(=O)N3CCCC3)CC2)cc1,,"inconclusive: 39.8 µM [inhibitor, partial curve, poor fit]",
CCc1cc(NC(CCO)c2ccccc2)n2nc(C)c(C)c2n1 (stereo not drawn),,"inconclusive: 89.1 µM [inhibitor, single point]",
CNC(=O)c1cc(C2CC2)nc2c1c(C1CCCN([S+](=O)([O-])c3c(C)noc3C)C1)nn2C (stereo not drawn),,"inconclusive: 89.1 µM [inhibitor, single point]",
CCOc1ccc(S(=O)(=O)N2CCCN(C(=O)C3CC3)c3ccccc32)cc1,,"inconclusive: 89.1 µM [inhibitor, single point]",
O=C(Cc1ccccc1)Nc1cc(-c2ccncc2)nn1-c1ccccc1,,"inconclusive: 56.2 µM [inhibitor, partial curve, poor fit]",
COc1cccc(C(=O)N2CCC3(CC2)OCC(C(=O)NC(C)C)N3C(=O)c2ccccc2C)c1 (stereo not drawn),,"inconclusive: 89.1 µM [inhibitor, partial curve, poor fit]",
Cc1nsc(NC(=O)NC(C)c2ccc(Cl)cc2)n1 (stereo not drawn),,"inconclusive: 70.8 µM [inhibitor, single point]",
CNC(=O)[C@@H]1C[C@H](Oc2cccnc2)CN1,inactive: -9.63%,,
COc1ccc(CN2CC(COc3ccc(OC)cc3)Oc3ncccc3C2=O)cc1 (stereo not drawn),,"inconclusive: 56.2 µM [inhibitor, partial curve, poor fit]",
COc1ccc(C(=O)N2CCC(n3cc(-c4nc(-c5ccccc5)no4)nn3)C2)cc1F (stereo not drawn),,"inconclusive: 50.1 µM [inhibitor, partial curve, poor fit]",

SMILES,"activity change, negative = cytotoxicity",Potency,outcome
COc1ccc(-c2nc(C)nc3c2CCN(CC2CC2)CC3)cc1,,"inconclusive: 126 µM [inhibitor, single point]",
COc1ccc(CC(=O)N2CCC(N3C(=O)c4c(c(C)nn4-c4ccccc4)C3C3CC3)C2)cc1 (stereo not drawn),,"inconclusive: 50.1 µM [inhibitor, partial curve, poor fit]",
COc1ccc(C2Cn3nnc(C(=O)N4CCN(C(=O)c5cccc(F)c5)CC4)c3CO2)cc1 (stereo not drawn),,"inconclusive: 39.8 µM [inhibitor, partial curve, poor fit]",
O=C(NC1CCCCCC1)c1ccc2oc(-c3ccncc3Cl)nc2c1,inactive: -27.2% [at 172 µM],,
O=C(C1CC1)N1CCCC(CN2CCCC2)CC1 (stereo not drawn),inactive: -0.327%,,
Cc1noc(-c2cn(C3CCN(C(=O)c4cc(F)ccc4F)CC3)nn2)n1,inactive: -4.45%,,
COc1ccc(-c2noc([C@@H]3C[C@H](NS(=O)(=O)c4ccccc4)CN3C)n2)cc1,,active: 89.1 µM,
COc1cccc(CNC(=O)c2cc(-c3ccncc3)cn2C)c1OC,,"inconclusive: 39.8 µM [inhibitor, partial curve, poor fit]",
Cc1ccc(-c2cc(N3CCC(CNC(=O)c4cc(C5CC5)[nH]n4)CC3)n[nH]2)cc1,,"inconclusive: 56.2 µM [inhibitor, partial curve, poor fit]",
Cc1cccc(CNC(=O)CCc2conc2-c2ccccc2)c1,,"inconclusive: 79.4 µM [inhibitor, single point]",
Cc1ccc(NC(=O)C2CC(=O)N(c3n[nH]c4cccc(F)c34)C2)cc1C (stereo not drawn),,"inconclusive: 89.1 µM [inhibitor, single point]",
CC(C)C(=O)N1CCCCCCNC(=O)[C@@H]2C[C@@H](C(=O)NCCc3c[nH]c4ccccc34)C[C@@H]21,,"inconclusive: 5.62 µM [inhibitor, partial curve, poor fit]",
COc1cccc(NC(=O)O[C@@H]2CO[C@H]3[C@@H]2OC[C@@H]3Nc2nccc(-c3cccs3)n2)c1,,"inconclusive: 56.2 µM [inhibitor, partial curve, poor fit]",
CC(=O)c1ccc(NC(=O)O[C@@H]2CO[C@H]3[C@@H]2OC[C@@H]3NC(=S)NC2CCCCC2)cc1,,active: 79.4 µM,
O=C(N1CCC(Cc2nc(-c3ccc(F)cc3)no2)CC1)C1(c2ccccc2)CC1,,"inconclusive: 31.6 µM [inhibitor, partial curve, poor fit]",
CCn1cc(-c2ccccc2)cc1C(=O)O,inactive: 5.9%,,
O=C(Cc1ccc(F)cc1)Nc1ccc(-c2nnc3n2CCCC3)cc1,,"inconclusive: 70.8 µM [inhibitor, partial curve, poor fit]",
Cc1noc([C@@H](C)NC(=O)c2cc(C)n(C)n2)c1C(=O)O,inactive: -17.5% [at 230 µM],,
Cc1nccn1CC(=O)NCC1CCN(c2cc(-c3ccccc3)[nH]n2)CC1,inactive: 0.823%,,
CO[C@H]1C(=O)N(C2CCN(S(=O)(=O)c3c(C)nn(C)c3C)CC2)[C@H]1c1ccncc1,inactive: -4.47%,,
COCc1nc(C2CCN(S(=O)(=O)c3ccc4c(c3)OCCO4)C2)no1 (stereo not drawn),,"inconclusive: 25.1 µM [inhibitor, partial curve, poor fit]",
Cc1nnc(-c2cc(-c3cccc(OC(F)(F)F)c3)ccn2)n1CCN1CCOCC1,,"inconclusive: 39.8 µM [inhibitor, full curve]",
CNC(=O)c1cc(C)nc2onc(C3CCCN(C(=O)c4ccccc4C)C3)c12 (stereo not drawn),inactive: 0.11%,,

SMILES,"activity change, negative = cytotoxicity",Potency,outcome
Cc1cn2nc(C(=O)NCCc3ccccc3)cc2c(N2CCCC2)n1,,"inconclusive: 89.1 µM [inhibitor, single point]",
COc1ccc(CN2CCn3c(nn(-c4ccc([N+](=O)[O-])cc4)c3=O)C2)cc1,,"inconclusive: 35.5 µM [inhibitor, full curve]",
Cc1ccc(C2Cn3nnc(C(=O)N4CCN(C(=O)COc5cccc(C)c5)CC4)c3CO2)cc1 (stereo not drawn),inactive: 11.9%,,
Cc1cc(C(=O)N(C)CC2(C)CCOCC2)nn1C,inactive: -3.13%,,
Cc1ccc(C)c(NC(=O)[C@H]2CCC[C@H]2NC(=O)c2ccncc2)c1,inactive: 1.24%,,
COc1ccc(CCN2Cc3cc(NC(=O)c4ccccc4OC)ccc3OCC2=O)cc1,,"inconclusive: 10 µM [inhibitor, full curve, poor fit]",
Cc1ccc(C(=O)N2CCc3[nH]nc(C(=O)NCCCc4ccccc4)c3C2)cc1C,,"inconclusive: 56.2 µM [inhibitor, partial curve, poor fit]",
Cc1nsc(NC(=O)N2CCC(C(=O)N3CCCC3)CC2)n1,,,inactive
Cc1ccc(-c2nnc(C3CN(C(=O)c4ccccc4F)CC34CCOCC4)o2)cc1 (stereo not drawn),,"inconclusive: 50.1 µM [inhibitor, partial curve, poor fit]",
COc1ncccc1-c1ncc2c(n1)OCCN(c1cccc(C(F)(F)F)c1)C2=O,inactive: -16.4% [at 172 µM],,
OC1(CN2CCN(c3ccc(F)c(Cl)c3)CC2)CCCNC1 (stereo not drawn),,active: 79.4 µM,
O=C(Cc1ccc(F)cc1)N1CCC(N2CC3CC(C2)[C@H]2CCCC(=O)N2C3)CC1 (stereo partly drawn),inactive: -1.42%,,
CO[C@H]1C(=O)N(C)C2(CCN(C(=O)OCc3ccccc3)CC2)[C@@H]1C(=O)Nc1ccccc1,,"inconclusive: 89.1 µM [inhibitor, single point]",
COc1ccccc1Nc1ccnc(N2CCCC(C(=O)NCc3cccc(F)c3)C2)n1 (stereo not drawn),,active: 11.2 µM,
CCc1ccc(N2CC(c3noc(-c4cc(Cl)ccc4F)n3)CC2=O)cc1 (stereo not drawn),,"inconclusive: 89.1 µM [inhibitor, single point]",
CCn1cc(S(=O)(=O)N2CCc3nn(CC4CC4)c(=O)n3CC2)cn1,,,inactive
OC[C@@H]1CNC[C@H]1C1CCN(Cc2ccc(OC(F)(F)F)cc2)CC1,,active: 39.8 µM,
CCc1nc(-c2c3n(c(=O)n(CC(=O)Nc4ccc(Cl)cc4)c2=O)CCCC3)no1,inactive: -0.979%,,
COc1ccc(NC(=O)C2=NO[C@@H]3CN(c4cccnc4)C[C@H]23)cc1,,"inconclusive: 56.2 µM [inhibitor, partial curve]",
CC(C)C(=O)N1CCC2(CC1)OC(=O)N(Cc1ccccc1)C2(C)c1cccnc1 (stereo not drawn),inactive: -17.3% [at 172 µM],,
CN(CCO)CC1(O)CCCN(Cc2ccccc2F)C1=O (stereo not drawn),inactive: -25.7%,,
COc1ccc(C(=O)NCCc2noc(-c3cccnc3)n2)cc1OC,inactive: -23.4%,,
